Results reported in article doi:10.1101/2024.01.25.577078 (bioRxiv, 2024).

Molecular target: Hsc70 (human, UniProt P11142)
Assay: co-sedimentation

B1: WT DNAJB1 (natural protein)
chain: MGKDYYQTLGLARGASDEEIKRAYRRQALRYHPDKNKEPGAEEKFKEIAEAYDVLSDPRKREIFDRYGEEGLKGSGPSGGSGGGANGTSFSYTFHGDPHAMFAEFFGGRNPFDTFFGQRNGEEGMDIDDPFSGFPMGMGGFTNVNFGRSRSAQEPARKKQ[no letters for about 150 residues]PERIPQTSRTVLEQVLPI
- binding result: binds
